The text below walks through data of publication PMC8053108 (Nucleic Acids Research, 2021).

For the experiment, the target named is T1, RPA2 winged-helix domain (RPA2 residues 172–270) (human, UniProt P15927 172-270, MTSL spin label at C219 (in the PRE NMR experiment only)).
T1 construct: human RPA2, C-terminal winged-helix domain, residues 172–270; Unlabelled in the uracil excision assays; also called RPA2-WH; WH domain; source: expressed as RPA2-WH-intein fusion (pTYB12) in ZYP-5052 autoinduction medium at 16°C, WH domain purified
Nature of the experiment: paramagnetic relaxation enhancement (PRE) NMR; 15N-labelled UNG2 (1–93) with 1.5 molar excess of RPA2-WH MTSL-labelled at C219, before and after ascorbic acid; 25°C; 20 mM phosphate buffer pH 7.0, 10 mM NaCl, H2O/D2O 9:1. Particulars: both partners purified.

T1 sequence (P15927 172-270): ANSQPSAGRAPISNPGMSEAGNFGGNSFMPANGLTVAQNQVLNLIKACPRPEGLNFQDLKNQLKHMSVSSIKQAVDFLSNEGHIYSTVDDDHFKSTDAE

B1: 15N-labelled UNG2 N-terminal region ([…]) (domain or fragment)
chain: not shown
modifications: uniformly 15N-labelled
notes: human uracil-DNA glycosylase, nuclear isoform UNG2, N-terminal regulatory region, […]; also called N-terminal UNG2; UNG2 N-terminal ([…])
Take B1: the binding result is on record as “binds”.
